{
  "source": "the supplement of paper PMC8728848",
  "binders": {"B1": {"name": "SialidaseA (Arthrobacter ureafaciens) (protein)", "chain": "MRSNSTSAPSLVRRAATGVLTCAVSIGLLAGLGLPAQAAPTPPNSPTLPPGSFSETNLAADRTAANFFYRIPALTYLGNDVVLAAWDGRPGSAADAPNPNSIVQRRSTDGGKTWGPVQVIAAGHVADASGPRYGYSDPSYIYDAEANKVFAFFVYSKDQGFGGSQFGNDDADRNVISSAVIESSDAGVTWSQPRLITSVTKPGTSKTNPAAGDVRSNFASSGEGIQLKYGPHKGRLIQQYAGDVRQADGSNKIQAYSVYSDDHGVTWHKGANVGDRMDENKTVELSDGRVLLNSRDNANRGYRKVAVSTDGGATYGPVSQDTELPDPANNGAIARMFPNAAQGSADAKKLIFTNANSKTGRENVSARVSCDDGETWPGVRTIRSGFSAYSTVTRLADGKFGVLYEGNYTDNMPFATFDDAWLNYVCAPLAVPAVNIAPSATQEVPVTVTNQEATTLSGATATVYTPSGWSATTVPVPDVAPGASVTVTVALTAPADASGPRSLNAAFTTADGRVSQFTFTATTPVAPQVGLTITGSAPARDVAANPYQAGDVLGYTLNVKSTANVAANSVPLTGTFDSGFLPPAAPNCRYNNLAAGASYNCTTAKHTITAADMERGYFVPEATFSITSTTTPSLTKTVQFTGAAVALRDGLISADISGARTDVGRDLATRPYAAGELVPYAFTVKNTSPFVEQVVPTAGNFSPFLPAGAGNCRYLSLPAGQSYECATPRHAVTAEEVEQGFFVPDTTWEVSAAGQSTRTYRINGGEVDLLVRDAALSATVVAEWKDADGDRFASAGDPVTFTYTVGNAGNVALTGLEAPDAGISLPFLAPGDTATATREHVLTAADVAGGSLAASAFEATARNGSKEVTATAEGQPLELKVQPAQPSKEPELTVQDLEDQTPPFDLGTAFKYRTGQKVSLAGLEYGQWYYVYLNKTGYRLGWMFPTTGDTVEFILPPEVRNGRDDVVVLDKDGRRVSFDRLQVTPKGEKI"}},
  "test_in_all_cases": "glycan array binding signal (z-score within array); higher = stronger binding",
  "conditions_in_all_cases": "glycan notation: IUPAC condensed, linker removed",
  "key": {"Gal(b1-4)Glc": {"target": "Gal(b1-4)Glc", "method_in_brief": "(§1)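 Glycan array data came from 3228 arrays in the Consortium for Functional Glycomics database, and only arrays with an available protein sequence were kept. Glycan names were put into IUPAC-condensed notation, and columns mapping to the same glycan were averaged. The binding signal is a within-array Z-score, averaged across arrays of one protein sequence run at different concentrations or buffers and across linkers. A negative Z-score can be read as non-binding.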"}, "Gal(b1-4)Glc6S": {"target": "Gal(b1-4)Glc6S", "method_in_brief": "as §1"}, "Gal(b1-4)GlcNAc": {"target": "Gal(b1-4)GlcNAc", "method_in_brief": "as §1"}, "[1]": {"target": "Gal(b1-4)GlcNAc(a1-6)Gal(b1-4)GlcNAc", "method_in_brief": "as §1"}, "Gal(b1-4)GlcNAc(b1-2)Man": {"target": "Gal(b1-4)GlcNAc(b1-2)Man", "method_in_brief": "as §1"}, "[2]": {"target": "Gal(b1-4)GlcNAc(b1-2)Man(a1-3)Man(b1-4)GlcNAc(b1-4)GlcNAc", "method_in_brief": "as §1"}, "[3]": {"target": "Gal(b1-4)GlcNAc(b1-2)Man(a1-3)[Gal(b1-4)GlcNAc(b1-2)Man(a1-6)]Man(b1-4)GlcNAc(b1-4)GlcNAc", "method_in_brief": "as §1"}, "[4]": {"target": "Gal(b1-4)GlcNAc(b1-2)Man(a1-3)[Gal(b1-4)GlcNAc(b1-2)Man(a1-6)]Man(b1-4)GlcNAc(b1-4)[Fuc(a1-6)]GlcNAc", "method_in_brief": "as §1"}, "[5]": {"target": "Gal(b1-4)GlcNAc(b1-2)Man(a1-3)[Gal(b1-4)GlcNAc(b1-2)Man(a1-6)][Gal(b1-4)GlcNAc(b1-4)]Man(b1-4)GlcNAc(b1-4)[Fuc(a1-6)]GlcNAc", "method_in_brief": "as §1"}, "[6]": {"target": "Gal(b1-4)GlcNAc(b1-2)Man(a1-3)[Gal(b1-4)GlcNAc(b1-2)Man(a1-6)][GlcNAc(b1-4)]Man(b1-4)GlcNAc(b1-4)[Fuc(a1-6)]GlcNAc", "method_in_brief": "as §1"}, "[7]": {"target": "Gal(b1-4)GlcNAc(b1-2)Man(a1-3)[GlcNAc(b1-2)Man(a1-6)]Man(b1-4)GlcNAc(b1-4)GlcNAc", "method_in_brief": "as §1"}, "[8]": {"target": "Gal(b1-4)GlcNAc(b1-2)Man(a1-3)[GlcNAc(b1-4)][Gal(b1-4)GlcNAc(b1-2)Man(a1-6)]Man(b1-4)GlcNAc(b1-4)GlcNAc", "method_in_brief": "as §1"}, "[9]": {"target": "Gal(b1-4)GlcNAc(b1-2)Man(a1-3)[Man(a1-6)]Man(b1-4)GlcNAc(b1-4)GlcNAc", "method_in_brief": "as §1"}, "[10]": {"target": "Gal(b1-4)GlcNAc(b1-2)Man(a1-6)Man(b1-4)GlcNAc(b1-4)GlcNAc", "method_in_brief": "as §1"}, "[11]": {"target": "Gal(b1-4)GlcNAc(b1-2)Man(a1-6)[GlcNAc(b1-2)Man(a1-3)]Man(b1-4)GlcNAc(b1-4)GlcNAc", "method_in_brief": "as §1"}, "[12]": {"target": "Gal(b1-4)GlcNAc(b1-2)Man(a1-6)[Man(a1-3)]Man(b1-4)GlcNAc(b1-4)GlcNAc", "method_in_brief": "as §1"}, "[13]": {"target": "Gal(b1-4)GlcNAc(b1-2)[Gal(b1-4)GlcNAc(b1-4)]Man(a1-3)[Gal(b1-4)GlcNAc(b1-2)Man(a1-6)]Man(b1-4)GlcNAc(b1-4)GlcNAc", "method_in_brief": "as §1"}, "[14]": {"target": "Gal(b1-4)GlcNAc(b1-2)[Gal(b1-4)GlcNAc(b1-4)]Man(a1-3)[Gal(b1-4)GlcNAc(b1-2)[Gal(b1-4)GlcNAc(b1-6)]Man(a1-6)]Man(b1-4)GlcNAc(b1-4)GlcNAc", "method_in_brief": "as §1"}, "[15]": {"target": "Gal(b1-4)GlcNAc(b1-2)[Gal(b1-4)GlcNAc(b1-4)]Man(a1-3)[GlcNAc(b1-4)][Gal(b1-4)GlcNAc(b1-2)Man(a1-6)]Man(b1-4)GlcNAc(b1-4)GlcNAc", "method_in_brief": "as §1"}, "[16]": {"target": "Gal(b1-4)GlcNAc(b1-2)[Gal(b1-4)GlcNAc(b1-4)]Man(a1-3)[GlcNAc(b1-4)][Gal(b1-4)GlcNAc(b1-2)[Gal(b1-4)GlcNAc(b1-6)]Man(a1-6)]Man(b1-4)GlcNAc(b1-4)GlcNAc", "method_in_brief": "as §1"}, "[17]": {"target": "Gal(b1-4)GlcNAc(b1-2)[Gal(b1-4)GlcNAc(b1-6)]Man(a1-6)[Gal(b1-4)GlcNAc(b1-2)Man(a1-3)]Man(b1-4)GlcNAc(b1-4)GlcNAc", "method_in_brief": "as §1"}, "[18]": {"target": "Gal(b1-4)GlcNAc(b1-2)[Gal(b1-4)GlcNAc(b1-6)]Man(a1-6)[Gal(b1-4)GlcNAc(b1-2)Man(a1-3)]Man(b1-4)GlcNAc(b1-4)[Fuc(a1-6)]GlcNAc", "method_in_brief": "as §1"}, "[19]": {"target": "Gal(b1-4)GlcNAc(b1-2)[Gal(b1-4)GlcNAc(b1-6)]Man(a1-6)[GlcNAc(b1-4)][Gal(b1-4)GlcNAc(b1-2)Man(a1-3)]Man(b1-4)GlcNAc(b1-4)GlcNAc", "method_in_brief": "as §1"}, "[20]": {"target": "Gal(b1-4)GlcNAc(b1-2)[Gal(b1-4)GlcNAc(b1-6)]Man(a1-6)[GlcNAc(b1-4)][Gal(b1-4)GlcNAc(b1-2)[Gal(b1-4)GlcNAc(b1-4)]Man(a1-3)]Man(b1-4)GlcNAc(b1-4)[Fuc(a1-6)]GlcNAc", "method_in_brief": "as §1"}, "[21]": {"target": "Gal(b1-4)GlcNAc(b1-3)Gal(b1-3)GalNAc", "method_in_brief": "as §1"}, "[22]": {"target": "Gal(b1-4)GlcNAc(b1-3)Gal(b1-3)GlcNAc", "method_in_brief": "as §1"}, "[23]": {"target": "Gal(b1-4)GlcNAc(b1-3)Gal(b1-4)Glc", "method_in_brief": "as §1"}, "[24]": {"target": "Gal(b1-4)GlcNAc(b1-3)Gal(b1-4)GlcNAc", "method_in_brief": "as §1"}, "[25]": {"target": "Gal(b1-4)GlcNAc(b1-3)Gal(b1-4)GlcNAc(b1-2)Man(a1-3)[Gal(b1-4)GlcNAc(b1-3)Gal(b1-4)GlcNAc(b1-2)Man(a1-6)]Man(b1-4)GlcNAc(b1-4)GlcNAc", "method_in_brief": "as §1"}, "[26]": {"target": "Gal(b1-4)GlcNAc(b1-3)Gal(b1-4)GlcNAc(b1-2)Man(a1-3)[Gal(b1-4)GlcNAc(b1-3)Gal(b1-4)GlcNAc(b1-2)Man(a1-6)]Man(b1-4)GlcNAc(b1-4)[Fuc(a1-6)]GlcNAc", "method_in_brief": "as §1"}},
  "note": "Some of the results follow.",
  "data": [
    {"binder": "B1", "values": [
      {"measurement": "glycan array binding signal (z-score)", "setting": "Gal(b1-4)Glc", "result": -0.712},
      {"measurement": "glycan array binding signal (z-score)", "setting": "Gal(b1-4)Glc6S", "result": -0.594},
      {"measurement": "glycan array binding signal (z-score)", "setting": "Gal(b1-4)GlcNAc", "result": -0.624},
      {"measurement": "glycan array binding signal (z-score)", "setting": "[1]", "result": -0.669},
      {"measurement": "glycan array binding signal (z-score)", "setting": "Gal(b1-4)GlcNAc(b1-2)Man", "result": -0.078},
      {"measurement": "glycan array binding signal (z-score)", "setting": "[2]", "result": -0.556},
      {"measurement": "glycan array binding signal (z-score)", "setting": "[3]", "result": -0.544},
      {"measurement": "glycan array binding signal (z-score)", "setting": "[4]", "result": -0.503},
      {"measurement": "glycan array binding signal (z-score)", "setting": "[5]", "result": -0.789},
      {"measurement": "glycan array binding signal (z-score)", "setting": "[6]", "result": -0.629},
      {"measurement": "glycan array binding signal (z-score)", "setting": "[7]", "result": -0.69},
      {"measurement": "glycan array binding signal (z-score)", "setting": "[8]", "result": -0.598},
      {"measurement": "glycan array binding signal (z-score)", "setting": "[9]", "result": -0.483},
      {"measurement": "glycan array binding signal (z-score)", "setting": "[10]", "result": -0.663},
      {"measurement": "glycan array binding signal (z-score)", "setting": "[11]", "result": -0.153},
      {"measurement": "glycan array binding signal (z-score)", "setting": "[12]", "result": -0.247},
      {"measurement": "glycan array binding signal (z-score)", "setting": "[13]", "result": -0.692},
      {"measurement": "glycan array binding signal (z-score)", "setting": "[14]", "result": -0.623},
      {"measurement": "glycan array binding signal (z-score)", "setting": "[15]", "result": -0.782},
      {"measurement": "glycan array binding signal (z-score)", "setting": "[16]", "result": -0.522},
      {"measurement": "glycan array binding signal (z-score)", "setting": "[17]", "result": -0.46},
      {"measurement": "glycan array binding signal (z-score)", "setting": "[18]", "result": 0.354},
      {"measurement": "glycan array binding signal (z-score)", "setting": "[19]", "result": -0.526},
      {"measurement": "glycan array binding signal (z-score)", "setting": "[20]", "result": -0.671},
      {"measurement": "glycan array binding signal (z-score)", "setting": "[21]", "result": -0.734},
      {"measurement": "glycan array binding signal (z-score)", "setting": "[22]", "result": -0.621},
      {"measurement": "glycan array binding signal (z-score)", "setting": "[23]", "result": -0.525},
      {"measurement": "glycan array binding signal (z-score)", "setting": "[24]", "result": -0.692},
      {"measurement": "glycan array binding signal (z-score)", "setting": "[25]", "result": 0.856},
      {"measurement": "glycan array binding signal (z-score)", "setting": "[26]", "result": 0.648}
    ]}
  ]
}
